The whole screen tested about 220,000 compounds, of which about 16,000 (7.3%) were called active. Inconclusive results, whose numbers are uncertain, are shown with a selection of clear calls. The call rests on the fitted dose curve; in most records, active means well fitted inhibition curve with a large enough effect (not every such curve was filed as active); inconclusive means small, poorly fitted or top-dose-only effect, or another doubt; inactive means no such curve, though single readings can be large or run the other way. Potencies of inconclusive entries are doubtful fits and often do not repeat.
What follows are molecules tested against Aldehyde dehydrogenase 1A1 (Homo sapiens) (UniProt P00352) (assay: qHTS Assay for Inhibitors of Aldehyde Dehydrogenase 1 (ALDH1A1)). Settings: Purified ALDH1A1, NADH fluorescence, propionaldehyde substrate; series mostly up to 75.3 µM; activity, negative = inhibition: at the top concentration.
Sequence of UniProt P00352 (P00352 whole entry, looked up): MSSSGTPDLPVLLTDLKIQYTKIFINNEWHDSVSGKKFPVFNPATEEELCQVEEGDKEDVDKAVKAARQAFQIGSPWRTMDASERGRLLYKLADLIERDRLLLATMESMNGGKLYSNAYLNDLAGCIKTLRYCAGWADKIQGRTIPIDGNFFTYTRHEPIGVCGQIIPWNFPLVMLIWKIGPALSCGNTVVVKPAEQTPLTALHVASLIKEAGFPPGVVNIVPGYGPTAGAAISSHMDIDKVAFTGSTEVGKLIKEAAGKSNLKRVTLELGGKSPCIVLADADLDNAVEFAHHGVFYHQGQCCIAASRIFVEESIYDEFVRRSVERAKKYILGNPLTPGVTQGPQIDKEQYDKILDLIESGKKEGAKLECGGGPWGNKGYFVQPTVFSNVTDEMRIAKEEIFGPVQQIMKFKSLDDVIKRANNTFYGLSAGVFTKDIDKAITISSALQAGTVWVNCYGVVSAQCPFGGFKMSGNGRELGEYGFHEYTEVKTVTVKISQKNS
Potency means the concentration at half of the fitted maximal effect; tags describe the fitted curve by direction and shape.
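Wherever activity, negative = inhibition is given: plate controls were no enzyme wells and a reference inhibitor.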

Potency, active:
O=C(CSc1ncnc2ccccc12)c1ccco1 11.2 µM, O=C(CSc1nc2ccccc2[nH]1)c1ccc2c(c1)OCO2 28.2 µM, O=S(=O)(c1ccc(F)cc1)c1nc(-c2ccccc2F)oc1N1CCCCC1 5.01 µM, CCOc1ccc(N/C(C)=C\C(=O)c2ccc3c(c2)OCCO3)cc1 12.6 µM, O=C(NC(=S)Nc1cccc2ncccc12)c1ccccc1 14.1 µM, O=C(OCCN1CCOCC1)C(c1ccccc1)c1ccccc1 25.1 µM, CC(C)(C)OC(=O)NCC(=O)Oc1cc2oc(=O)cc(-c3ccccc3)c2cc1Cl 25.1 µM, CCn1cc(NC(=O)CCl)c(C)n1 4.47 µM, COCCCN1C(=O)c2ccc(C(=O)NCc3ccco3)cc2C1=O 12.6 µM, COc1ncc2nc(CCc3ccccc3)c(=O)n(C3CC3)c2n1 18.9 µM, Fc1ccc(C2c3[nH]c4ccccc4c3CCN2Cc2cccn2-c2ncccn2)cc1 (stereo not drawn) 10 µM, O=C(NCc1ccco1)c1ccc2c(=O)n(CC3CCCO3)c(=S)[nH]c2c1 (stereo not drawn) 3.16 µM, CCOc1cc(/C=C(\C#N)C(N)=O)ccc1OS(=O)(=O)c1ccccc1 12.6 µM, O=C(CSc1nnnn1C1CCCCC1)Nc1ccccc1N1CCOCC1 28.2 µM, FC(F)(F)c1cnc(NNC(=S)Nc2ccccc2Cl)c(Cl)c1 1.5 µM

Potency, inconclusive:
COc1ccc(N2CCN(C(=O)CCN3C(=O)C4C5C=CC(C5)C4C3=O)CC2)cc1 (stereo not drawn) 39.8 µM [inhibitor, single point], Cc1cc(Cl)c(S(=O)(=O)N2CCCC2)cc1OCC(=O)NC1CCCCC1 25.1 µM [inhibitor, partial curve], Cn1c(=O)c(-c2ccccc2)nc2cnc(N3CCNCC3)nc21 31.6 µM [inhibitor, partial curve], O=C(C1CCCO1)N1CCN(C(=S)Nc2ccc(Cl)cc2)CC1 (stereo not drawn) 25.1 µM [inhibitor, single point], CC1=CC(=O)OC1Cc1ccc2ccccc2n1 (stereo not drawn) 25.1 µM [inhibitor, single point], CS(=O)(=O)c1ccc2nc(NC(=O)c3ccc(N4CCCC4=O)cc3)sc2c1 39.8 µM [inhibitor, single point], COc1ccccc1N1CCN(C(=O)C(NS(=O)(=O)c2cccs2)c2ccccc2)CC1 (stereo not drawn) 39.8 µM [inhibitor, single point], Cc1ccc(S(=O)(=O)N2CCN(Cc3nc4ccccc4n3C)CC2)cc1 39.8 µM [inhibitor, single point], COc1cccc(CSc2nnc(CSc3nc4nc(C)cc(C)n4n3)s2)c1 39.8 µM [inhibitor, single point], CCN(CC)C(=O)Oc1cc(=O)n2c3c(cccc13)CCC2 25.1 µM [inhibitor, partial curve], CC1(C)C(c2ccccc2)=[N+]([O-])C2(CCCCC2=O)N1O (stereo not drawn) 35.5 µM [inhibitor, single point], Cc1ccc(-n2cc(C(=O)c3ccc(N4CCN(C)CC4)cc3)nn2)cc1Cl 5.01 µM [inhibitor, full curve, poor fit], COCC(=O)N1CCC2(CC1)CN(c1cccc(-c3ccccc3)c1)C2 25.1 µM [inhibitor, single point], CCOn1c(=O)c(-c2cccc([N+](=O)[O-])c2)[n+]([O-])c2ccccc21 17.8 µM [inhibitor, single point], CCc1ccc2oc(=O)cc(CN3CCCCC3C)c2c1 (stereo not drawn) 11.2 µM [inhibitor, partial curve], COc1cccc(S(=O)(=O)NCc2ccc(C(=O)Nc3cccc(Cl)c3)cc2)c1 39.8 µM [inhibitor, single point], c1ccc(-c2nc3ccccc3s2)nc1 39.8 µM [inhibitor, single point], CC1(C)OC(=O)C(=CNc2ccccc2)C(=O)O1 14.1 µM [inhibitor, partial curve], CN(C)c1ccc(S(=O)(=O)c2ccc(Cl)cc2)cc1 35.5 µM [inhibitor, single point], CC(C)S(=O)(=O)c1csc(NC(=O)Nc2cccc([N+](=O)[O-])c2)c1Cl 15.8 µM [inhibitor, partial curve], O=C(N/N=C/c1ccncc1)c1cc([N+](=O)[O-])cc([N+](=O)[O-])c1O 22.4 µM [inhibitor, partial curve], N#Cc1cc2c(nc1SCC(=O)Nc1sc3c(c1C#N)CCC3)CCCC2 15.8 µM [inhibitor, partial curve], NC(=O)/C(=C/c1ccco1)NC(=O)/C=C/c1ccccc1 39.8 µM [inhibitor, single point], CCCCc1cc(=O)oc2c(CN(C)C)c(O)c(Cl)cc12 3.55 µM [inhibitor, partial curve], Cc1csc(NC(=O)c2cc3c(C)nn(Cc4ccccc4Cl)c3s2)n1 39.8 µM [inhibitor, single point], CC(=O)N1CC[n+]2c(-c3ccc(Cl)cc3)csc21 35.5 µM [inhibitor, single point], CCN(CC)C(=O)c1sc2nc(-c3ccncc3)[nH]c(=O)c2c1C 39.8 µM [inhibitor, single point], Cc1ccc(NC(=O)CSc2nn(-c3ccccc3)c(=S)s2)cc1S(=O)(=O)N(C)C 25.1 µM [inhibitor, single point], COc1ccc(C(=O)Nc2ccc(S(=O)(=O)N3CCCCC3)cc2)cc1 23.8 µM [inhibitor, single point], O=C(CSc1n[nH]c(=O)n1Cc1ccco1)Nc1ccccc1 39.8 µM [inhibitor, single point], CCc1ccc(S(=O)(=O)NCc2cn3cccc(C)c3n2)s1 25.1 µM [inhibitor, single point], CCCc1nnc(SCC(=O)N2CCOCC2)n1Cc1ccco1 20 µM [inhibitor, partial curve], CC(=O)OCC1OC(C#Cc2ccc(F)cc2F)C=CC1OC(C)=O (stereo not drawn) 3.98 µM [inhibitor, single point], CC1(CCc2ccc3c(c2)OCO3)NC(=O)c2ccccc2N1 (stereo not drawn) 28.2 µM [inhibitor, partial curve], CCOC(=O)c1nc(N2CCN(C(=O)OCC)CC2)c2c3c(sc2n1)CCCC3 35.5 µM [inhibitor, partial curve], COc1ccc(CSc2nc3ccccc3c(=O)n2CCCN2CCOCC2)cc1F 39.8 µM [inhibitor, single point], C/C(CC1CC(COCC(C)C)OC1=O)=N\Nc1nc(-c2ccccc2)cs1 (stereo not drawn) 39.8 µM [inhibitor, single point], O=c1cc(-c2cccs2)oc2ccc(Cl)cc12 35.5 µM [inhibitor, single point]

Potency, inactive:
CCCN(CC1CC1)c1nc(C)nc(Nc2c(Cl)cc(Cl)cc2Cl)c1Cl

activity, negative = inhibition, inactive:
COc1cccc(CN2CCN(C3CCN(c4cccc(C)c4C)CC3)CC2CCO)c1 (stereo not drawn) -2.11%, O=C(c1ccco1)N1CCN(C(=O)c2cc3c(=O)oc4ccccc4c3s2)CC1 7.87%, O=C1N=C(O)CN1/N=C/c1ccc(-c2ccc([N+](=O)[O-])cc2)o1 5.55%, O=C1C=C(Nc2ccc(Cl)cc2Cl)CC(c2ccco2)C1 (stereo not drawn) 4.62%, CSc1ccn(CCC(=O)O)c(=O)n1 -1.68%, Cc1cnc(CNc2cc(-c3ccccc3C)ncn2)cn1 -3.79%, Cn1cccc1C(=O)N1CCC2(CCN(Cc3ccc(C#N)cc3)CC2)CC1 -4.08%, CC(=O)NCCC(=O)NCc1ccc(F)cc1 -9.83%, CC(=O)c1cc(-c2ccccc2)n(CC(=O)N2CCC(N3CCCCC3)CC2)c1C 2.42%, O=C(NCc1ccncc1)/C(=C\c1ccc(F)cc1)NC(=O)c1ccccc1 7.2%, N/C(=N\OC(=O)c1ccc(Cl)cc1)c1ccc(Cl)cc1 -3.68%, c1cncc(CNc2ccnc(-c3cccnc3)n2)c1 -112%, COC(=O)c1ccc(CSc2nc3ccc(S(=O)(=O)N4CCOCC4)cc3[nH]2)cc1 -3.99%, O=C(c1ccccn1)c1ncc(C(F)(F)F)cc1Cl 17.1%, N#Cc1cccc(NC(=O)N2CC[C@@]3(CCCN(C(=O)c4cccc(F)c4)C3)C2)c1 -3.66%, COc1ccccc1NC(=O)NCC(=O)Nc1ccc(F)c(F)c1 -0.784%, O=C(c1cnccn1)N1CCC[C@@]2(CCN(C(c3ccccc3)c3ccccc3)C2)C1 1.93%, NC(=Nc1ccccc1)Nc1ccccc1 -1.01%, O=C(CN1CCOCC1)N/N=C/c1ccc(-c2cccc(Cl)c2Cl)o1 -11.4%, CN(C)c1oc(COc2ccccc2F)nc1C#N 0.325%, COc1ccc(/C=C(/C#N)c2cccnc2)cc1OC -0.32%, O=C(N/N=C/c1cnc(N2CCCCC2)s1)c1ccc(Cl)cc1 -0.296%, COC(=O)[C@@H](O)CC[C@@H](C)Cc1c(OC)c(OC)c(C)c(OC)c1OC 11.9%, CNC(=O)CSc1nnc(-c2cc(C)cc(C)c2)o1 4.44%
